# Among all 43,000 compounds or so, about 200 (0.47%) were called active. About 12% were inconclusive and are not listed. Calls come from the whole dose curve; as a rule, active = well fitted cell-killing curve with a large enough effect; inconclusive = small, poorly fitted or top-dose-only effect, or effect the other way; inactive = flat fitted curve, though single readings scatter. The list shows a part of the results.
# Experiment: Cell viability qHTS assay in S16 Pmp22-F2sN cells; note: nearly all actives have a fitted effect of over 65% in size
# Details: S16 Pmp22-F2sN Schwann cells viability, CellTiter-Glo, 24 h; series mostly up to 57.5 µM; activity change, negative = cytotoxicity: at the top concentration
# How it was run: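 S16 Pmp22-F2sN Schwann cells (500-1,000/well) in phenol-red-free DMEM with 10% FBS received 23 nL compound by pin tool for 24 h at 37 °C. Viability was then read as CellTiter-Glo luminescence after 15 min at room temperature.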
# % is set by controls: 0 for no effect and ±100 for the full control effect.
row,Compound,"activity change, negative = cytotoxicity"
1,Cc1cnc(=O)[nH]c1SCC(=O)Nc1cc(C(F)(F)F)ccc1Cl,inactive: -8.07%
2,CCCOc1ccc(CNC(=O)C2CCN(C(=O)c3sccc3-n3cccc3)CC2)cc1,inactive: -12.1%
3,Cc1cc2oc3c(c(=O)c2cc1C)C(c1ccc(C(C)C)cc1)N(c1nc(C)c(C)s1)C3=O (stereo unspecified),inactive: -2.01%
4,Cc1ccc(CNC(=O)CCCN2C(=O)CCn3nc(-c4cccn4C)cc32)cc1,inactive: -17.5%
5,COc1ccc(-c2nc3ccccc3n3c(-c4ccc(OC)cc4)c4c(=O)n(C)c(=O)n(C)c4c23)cc1,inactive: 8.61%
6,CCOc1ccc(CNC(=O)C2CCN(C(=O)N3CC(CC)Oc4ccc(C)cc43)CC2)cc1OC (stereo unspecified),inactive: -7.78%
7,Cc1cc(NC(=O)c2cc(-c3ccc(Cl)c(Cl)c3)on2)n(-c2ccccc2)n1,inactive: -2.77%
8,CCOC(=O)CSc1nc2sc3c(c2c(=O)n1-c1ccc(OC)cc1)CC(C(C)C)OC3 (stereo unspecified),inactive: -1.56%
9,COc1ccccc1NC(=O)Cn1c(=O)n(CC2CCC(C(=O)NCCc3ccccc3)CC2)c(=O)c2ccccc21 (stereo unspecified),inactive: 16.5%
10,Cc1ccccc1N1CC(c2nc3ccccc3n2Cc2ccc(Br)cc2)CC1=O (stereo unspecified),inactive: 2.2%
11,Cc1cc(Br)ccc1NC(=O)c1c(C)oc2ncnc(N3CCCCC3)c12,inactive: 9.39%
12,Cc1ccc(CNS(=O)(=O)c2ccc3c(c2)CC(C)N3C(=O)C2CCC2)cc1 (stereo unspecified),inactive: -25.9%
13,COc1ccc(OC)c(C(=O)CN2C(=O)N(c3ccc(C)cc3)S(=O)(=O)c3ccccc32)c1,inactive: 0.167%
14,O=C(Cn1c(-c2cccs2)cc2ccccc21)N1CCN(c2ccc(F)cc2)CC1,inactive: 9.98%
15,COC(=O)c1c(-c2cccs2)csc1NC(=O)c1ccc(C)cc1,inactive: 11%
16,Cc1ccccc1NC(=O)CCn1nc(-c2ccccc2)c2ccccc2c1=O,inactive: -23.8%
17,CCOc1ccc(Sc2cc(C(=O)NCc3ccccc3Cl)c3ccccc3n2)cc1,inactive: -2.81%
18,CCN(CC)CCOC(=O)c1ccc(NC(=O)c2cc3cc(OC)ccc3oc2=O)cc1,inactive: 3.68%
19,COCCNC(=O)CN1C(=O)COc2ccc(S(=O)(=O)N3CCCC3)cc21,inactive: 6.25%
20,Cc1nnc(SCC(=O)Nc2ccc(N(C)C)cc2)[nH]c1=O,inactive: 1.63%
21,CCOC(=O)N1CCc2c(sc3c2C(=O)NC(c2ccc(C(=O)OC)cc2)N3)C1 (stereo unspecified),inactive: -4.97%

row,Compound,"activity change, negative = cytotoxicity"
1,CCc1ccc(NC(=O)Cn2c(=O)n(CCCC(=O)NCCc3ccc(OC)c(OC)c3)c(=O)c3ccccc32)cc1,inactive: 12.8%
2,COc1ccccc1CNC(=O)CCCCn1c(=O)c2ccccc2n(CC(=O)Nc2cccc(Cl)c2)c1=O,inactive: 29.5%
3,COC(=O)c1cc2oc3ccccc3c2n1Cc1ccccc1Cl,inactive: 14.7%
4,Cc1cccc(NC(=O)N2CCN3CCCCC3C2)c1C (stereo unspecified),inactive: -0.297%
5,COc1cc(NC(=O)CCS(=O)(=O)c2ccc3c(c2)n(C)c(=O)c(=O)n3C)cc(OC)c1,inactive: -3.61%
6,Cc1cccc(C)c1Nc1c(-c2ccsc2)nc2cccc(C)n12,inactive: 3.06%
7,COc1ccccc1N1CCN(c2csc3ccccc3c2=O)CC1,inactive: -0.584%
8,COc1cccc(NC(=O)Cn2c(-c3nonc3N)nc3ccccc32)c1,inactive: -9.26%
9,CCc1ccc(NC(=O)C2CCCN(c3nnc(C)c4c(C)n(-c5ccccc5)nc34)C2)cc1 (stereo unspecified),inactive: 4.93%
10,COc1ccc(CNC(=O)C(=O)Nc2cccc(C)c2C)cc1,inactive: -2.86%
11,COc1ccc2oc(-c3ccc(NC(=O)c4ccc(Cl)cc4Cl)cc3)nc2c1,inactive: 7.16%
12,O=c1c(-c2cc(-c3ccccc3)nc3c2COc2ccccc2-3)coc2ccc(Cl)cc12,inactive: 16.3%
13,CC(C)NC(=O)CN1C(=O)c2cccnc2Sc2ccccc21,inactive: 6.52%
14,Cc1ccc(CCNC(=O)CCS(=O)(=O)c2cc3c(cc2Cl)NC(=O)CO3)cc1,inactive: -2.21%
15,O=C(OCc1cc(=O)n2nc(C3CC3)sc2n1)c1ccccc1Cl,inactive: 31.7%
16,COc1ccc(CNC(=O)C2=CC(c3cccc(OC)c3)=NS(=O)(=O)N2C)cc1,inactive: 1.05%
17,CC(=O)c1cccc(NC(=O)c2cc(C)nc3c2c(C)nn3-c2cccc(Cl)c2C)c1,inactive: -1.77%
18,COc1cccc(-c2nn3c(=O)cc(CN4CCN(C(=O)/C=C/c5ccccc5)CC4)nc3s2)c1,inactive: -7.32%
19,COc1ccc(NC(=O)Cn2nc(C(F)(F)F)c3c2CCCC3)cc1OC,inactive: 15%
20,CCOc1ccccc1NC(=O)C1=C(C)Nc2ncnn2C1c1cccs1 (stereo unspecified),inactive: 3.64%
21,Cc1cccc(N2CCN(C(=O)c3ccc4c(Cl)c5c(nc4c3)CCCC5)CC2)c1C,inactive: 4.95%

row,Compound,"activity change, negative = cytotoxicity"
1,COc1ccc(NC(=O)c2csnn2)cc1,inactive: 1.33%
2,Cc1ccc(NC(=O)Cn2c(=O)n(Cc3ccc(C(=O)NCc4ccc5c(c4)OCO5)cc3)c(=O)c3ccccc32)cc1,inactive: 13.3%
3,CCOc1ccc(CNC(=O)CCS(=O)(=O)c2ccc3c(c2)oc(=O)n3C)cc1,inactive: -16.6%
4,COC(=O)c1c(-c2ccc(Cl)cc2)noc1N1CCN(c2ccc(F)cc2)CC1,inactive: 7.99%
5,Cc1ccc(-c2nc(-c3cc4cccc(OCc5ccccc5F)c4oc3=O)no2)cc1,inactive: 10.6%
6,CCCOc1ccc(C(=O)Nc2ccc3oc(-c4ccc(N(C)C)cc4)nc3c2)cc1,inactive: 12%
7,Cc1c(Cl)cccc1NC(=O)Cn1nnc(-c2nc(-c3ccccc3)no2)c1N,inactive: 3.74%
8,Cc1cccc(C)c1NC(=O)CSc1nc2ccccc2c2nc(CCc3c(C)n[nH]c3C)nn12,inactive: 5.58%
9,CCCOc1ccc(OC(=O)c2cn(-c3ccc(OC)cc3)c(=O)c3ccccc23)cc1,inactive: -0.872%
10,CCCCOC(=O)c1ccc(NC(=O)c2csnn2)cc1,inactive: 5.48%
11,CC1=C(C(=O)Nc2ccccc2)C(c2ccc[nH]2)n2ncnc2N1 (stereo unspecified),inactive: 0.11%
12,Cc1ccccc1OCC(=O)Nc1ccc2nc(SCC(N)=O)sc2c1,inactive: 0.968%
13,COc1ccccc1N1CCN(Cc2nnc(-c3ccccc3C)o2)CC1,inactive: 15.6%
14,O=S(=O)(Nc1ccc(C(F)(F)F)cc1)c1ccc2c(c1)OCCO2,inactive: -7.2%
15,CCOC(=O)c1cccc(NC(=O)c2ccc3nc(CCc4ccccc4)oc3c2)c1,inactive: -9.94%
16,O=C(NCCCc1nc2ccccc2n1Cc1cccc(Cl)c1)C1CCCCC1,inactive: 5.75%
17,O=C(c1ccc2c(c1)N(Cc1ccc(Cl)cc1)C(=O)c1ccccc1S2=O)N1CCC(Cc2ccccc2)CC1 (stereo unspecified),inactive: -4.5%
18,COCCCn1c(=O)c2sccc2n2c(CCCC(=O)Nc3cccc(C(F)(F)F)c3)nnc12,inactive: 1.01%
19,Cc1nn(-c2ccc(Cl)cc2)c2nc(-c3cccnc3)cc(C(F)(F)F)c12,inactive: 11.5%
